Data reported in ChEMBL document CHEMBL1201862, “PubChem BioAssay data set” (2004).

Test system: NCI-H322M
Test: DTP human tumour cell line panel, 48 h

Structure (SMILES)	GI50
COc1ccc(Cc2cc(OC)c(OC)c(OC)c2)cc1O	active: < 0.0266 µM
C=CCSc1nc2ccccc2c(=O)n1Cc1ccco1	inactive: > 100 µM
Oc1c(CN2CCOCC2)ccc(CN2CCOCC2)c1O	inactive: 30.2 µM
O=C(O)c1cscc1Cc1cccs1	inactive: > 100 µM
CC(=O)c1ccc(Nc2c3c(nc4ccccc24)CCCC3)cc1	inactive: 27.9 µM
COC1=C(OC)C(=O)C(Sc2ccc3ccccc3c2)=CC1=O	inactive: 5.57 µM
CC1(c2cccc3ccccc23)OC(=O)c2ccccc21 (stereo not given)	inactive: 38.7 µM
COc1cc(S(=O)(=O)Nc2ccc(-c3csc(N4C(=O)CSC4c4ccccc4)n3)cc2)ccc1Cl (stereo not given)	inactive: 6.75 µM
COc1ccc(C2c3cc4c(cc3OC(O)(CO)C2C(=O)O)OCO4)c(OC)c1OC.COc1ccc(C2c3cc4c(cc3OC3(O)COC(=O)C23)OCO4)c(OC)c1OC (stereo not given)	inactive: > 100 µM
COc1ccc(NC(=O)CSC(=O)c2ccccc2)c(SCCSSCCSc2cc(OC)ccc2NC(=O)CSC(=O)c2ccccc2)c1	inactive: 24.5 µM
O=C1CCC(=O)N1CNc1ccc2c(c1)Sc1ccccc1O2	inactive: 44 µM
O=c1oc2c(ccc3occc32)c(N2CCCCC2)c1-c1ccccc1	inactive: > 100 µM
N=C(c1ccccc1)N1CCCCC1	inactive: > 100 µM
Cc1cc2c(O)c(c1)COCc1cc(C)cc(c1O)COCc1cc(C)cc(c1O)COC2	inactive: > 100 µM
CC(=O)O[C@H]1CCC2[C@@H]3CCC4Nc5[nH]ncc5C[C@]4(C)C3CC[C@@]21C (stereo not given in full)	inactive: > 100 µM
NC(=O)N/N=C(\CC1OC(=O)c2ccccc21)c1ccc([N+](=O)[O-])cc1 (stereo not given)	inactive: 28.6 µM
O=C1/C(=C/c2cccs2)NC(=S)N1CN1CCCC(CO)C1 (stereo not given)	inactive: > 100 µM
CN(CCc1ccccn1)C(=S)N/N=C(\c1ccccc1)c1ccccn1	active: < 0.0139 µM
O=[N+]([O-])C(/C(Cl)=C(/Cl)N1CCOCC1)=C1\NCCO1	inactive: > 100 µM
CN1CCN(C(=O)c2cn(Cc3cncn3Cc3ccc4c(c3)OCO4)cc2-c2cccc3ccccc23)CC1	inactive: 10.2 µM
CCN1CCC(O)(c2ccc(OC)cc2)C(C(=O)c2ccc(OC)cc2)C1 (stereo not given)	inactive: 39.7 µM
Cc1cc2nc3c(C#N)c(-c4ccccc4)cc(Nc4ccc(F)cc4)n3c2cc1C	inactive: 30.5 µM
COC(=O)C(=O)C(C(=O)Nc1cccc(C)c1C)C1Sc2ccccc2NC1=O (stereo not given)	inactive: 17.4 µM

Structure (SMILES)	GI50
Cc1ccc(C2=Nc3ccccc3[S+]([O-])C(c3ccc4c(c3)OCO4)C2)cc1 (stereo not given)	inactive: 34.8 µM
COC1CC(OS(=O)(=O)c2ccc(C)cc2)C(OC(=O)c2ccccc2)C(C)O1 (stereo not given)	inactive: 57.4 µM
CC1(C)CC(=O)C2=C(C1)NC(SCC(=O)O)=C(C#N)C2c1ccc(Br)cc1 (stereo not given)	inactive: > 100 µM
Cc1ccsc1/C=N/Nc1ccccn1	inactive: > 100 µM
C[C@]12CC[C@H](O)CC1=CC[C@@H]1C2CC[C@]2(C)C(=O)NC(=O)CC12 (stereo not given in full)	inactive: 95.7 µM
Nc1cccnc1NCC1(CO)CCCC1	inactive: > 100 µM
COc1ccc(OC)c2[s+]snc12	inactive: > 100 µM
N/C(=N\O)N/N=C\c1ccc(O)c(O)c1O	inactive: 19.6 µM
CN(CCCCN)c1ccc2c(=O)[nH][nH]c(=O)c2c1	inactive: > 100 µM
CCOC(=O)C(NC(=O)CC)(Nc1ccccc1F)C(F)(F)F (stereo not given)	inactive: > 100 µM
O=C1c2ccccc2CC12Cc1cc3c(cc1C2=O)CCC3 (stereo not given)	inactive: > 100 µM
CCN(CC)CCO/N=C1\CC[C@H]2[C@@H]3CCc4cc(OC)ccc4[C@H]3CC[C@]12C	inactive: 2.63 µM
C1=N\c2ccc(cc2)/N=C\c2ccc(cc2)OCc2cccc(n2)COc2ccc/1cc2	inactive: > 100 µM
Nc1nncc2c1c(Br)cn2C1OC(CO)C(O)C1O (stereo not given)	inactive: 21.7 µM
COC(=O)C(CBr)CBr	inactive: 16.3 µM
CN(C)C(=O)/N=c1\ss/c(=N\C(=S)N(C)C)n1-c1ccccc1	inactive: 61.4 µM
COc1cc2c(cc1O)[C@@]1(Cc3ccc(OC)c(OC)c3)CCC(=O)N1CC2	inactive: > 100 µM
CC(=O)N1c2ccccc2Sc2cc(C(O)(C(F)(F)F)C(F)(F)F)ccc21	inactive: > 10 µM
c1ccc2c(c1)N=c1cc3c(cc1N2)=NC12CCCCC1CC1=C(CCCC1)N32 (stereo not given)	inactive: > 10 µM
CC(=O)OCC1OC(Nc2ncc(-c3ccc(C)cc3)s2)C(OC(C)=O)C(OC(C)=O)C1OC(C)=O (stereo not given)	inactive: 68.9 µM
CCCCCN(CCCCC)CC(C)(C)C(O)c1ccc(OC)c2ccccc12 (stereo not given)	inactive: 11.5 µM
Cc1cc(C)nc(NS(=O)(=O)c2ccc(Nc3c4ccc(Cl)cc4nc4c(C(=O)Nc5ccc(S(=O)(=O)N=C(N)N)cc5)cccc34)cc2)n1	inactive: 37.8 µM
N#Cc1c(NC(=S)Nc2ccccc2)sc2c1CCCC2	inactive: > 100 µM

Structure (SMILES)	GI50
CC1COC(c2cn[nH]c2C(N)=O)C1O (stereo not given)	inactive: > 100 µM
CC(C)=NN/C(=N\c1ccc(Cl)cc1)NS(=O)(=O)c1cc(Cl)c(Oc2ccc([N+](=O)[O-])cc2Cl)c(Cl)c1	inactive: > 100 µM
Cc1ccc(S(=O)(=O)NCCCSCCSCCCN)cc1	inactive: > 100 µM
COc1ccc(C2=C3c4cc(OC)c(OC)cc4CCN3C(=S)SS2)cc1OC	inactive: > 10 µM
COC1C(CN[N+](=O)CC2OC3OC(C)(C)OC3C2OC)OC2OC(C)(C)OC21 (stereo not given)	inactive: > 100 µM
CC1CC2(OC2C)C(=O)OC2CCN(C)C/C=C(/COC(=O)C1(C)O)C2=O (stereo not given)	inactive: > 100 µM
COc1ccc(S(=O)(=O)NNS(C)(=O)=O)cc1	inactive: > 100 µM
COc1ccc2[nH]c3c(c2c1)CC(=S)N1CCCC(CC3=O)C1 (stereo not given)	inactive: 63.5 µM
CC12CC(Br)(Br)C(=O)C3C1CCCC32	inactive: 15.6 µM
COc1ccccc1NC(=S)NN=C(C)c1cccc(C(C)=NNC(=S)Nc2ccccc2OC)n1	inactive: 36.3 µM
CSc1nc(NC2OC(COC(C)=O)C(OC(C)=O)C(OC(C)=O)C2OC(C)=O)c(-c2csc(N)n2)c(=O)n1C (stereo not given)	inactive: 54 µM
Cc1cc(C)n2c(nc3ccccc32)c1C#N	inactive: > 100 µM
Oc1ccc(/C=N/NC(=S)Nc2cccnc2)nc1	inactive: 5.12 µM
COc1cc(OC)c(/C=C\c2ccnc3ccccc23)c(OC)c1	inactive: 2.49 µM
CCC1(CC)C(=O)N(C(=O)c2ccccc2)N(C(=O)c2ccc(Cl)cc2)C1=O	inactive: > 75 µM
Cc1ccc(S(=O)OC23CC4CC(CC(C4)C2)C3)cc1 (stereo not given)	inactive: > 100 µM
NC(=O)c1ccc(S(=O)(=NS(=O)(=O)c2ccccc2)c2ccc(C(N)=O)cc2)cc1	inactive: > 100 µM
COc1c(CC(C)=O)ccc2c1C(=O)c1ccc(C=O)c(OC(C)=O)c1C2=O	inactive: 18.3 µM
NCCn1cnc2nc(NC(=O)c3ccccc3)[nH]c(=O)c21	inactive: > 100 µM
COc1nc(NC2OC(COC(C)=O)C(OC(C)=O)C(OC(C)=O)C2OC(C)=O)c(-c2csc(N)n2)c(=O)n1C (stereo not given)	inactive: > 100 µM
O=C(Nc1nn(C(=O)c2cccnc2)c(=O)s1)c1ccc(Cl)cc1	inactive: > 100 µM
CSC(=S)N/N=C(\C)c1ccc(S(=O)(=O)N(C)c2ccccc2)cc1	inactive: 67.6 µM
CC(C)CC(NC(=O)OC(C)(C)C)C(=O)Nc1ccc(Nc2nc(F)nc(-c3c4ccccc4cn3C)n2)cc1 (stereo not given)	inactive: 15.7 µM

Structure (SMILES)	GI50
Cc1cc(OP2(=O)NCc3ncccc3O2)ccc1Cl (stereo not given)	inactive: > 100 µM
COc1cc(/C=C2\N=C(c3ccccc3)N(c3nc4cc(C)c(C)cc4s3)C2=O)cc(OC)c1OC	inactive: 31.3 µM
O=C1c2ccc3cc(CCl)cc(O)c3c2C(=O)c2cccc(O)c21	inactive: 3.84 µM
COc1ccc(/C=c2\c(=O)[nH]c3nc4ccccc4c(=O)n23)cc1	inactive: 74.8 µM
C/C=C/CC(S(=O)(=O)c1ccccc1)S(=O)(=O)c1ccccc1	inactive: > 100 µM
CCOC(=O)c1cc(C(=O)c2ccccc2)n2nc(-c3ccc(Cl)cc3)ccc12	inactive: 19.9 µM
Cc1ccc(Cc2n[nH]c(=O)n2/N=C\CC/C=N\n2c(Cc3ccc(C)cc3)n[nH]c2=O)cc1	inactive: > 100 µM
CC1OC(c2ccc3c(c2O)C(=O)C2=C(C3=O)C3(O)C(=O)CC(C)(O)CC3(O)C=C2)CC(O)C1O (stereo not given)	inactive: 30.8 µM
CCOCN1COCN/C1=N/C#N	inactive: > 100 µM
CC[C@H](C)[C@H](NC(=O)[C@@]1(O)[C@H](O)[C@]2(CC)C=CCN3CC[C@@]4(c5cc(Br)c(OC)cc5N(C)[C@@H]14)[C@@H]32)C(=O)OC	inactive: 35.1 µM
NC(Cc1ccc(S(=O)(=O)O)cc1)C(=O)NC(Cc1ccc(S(=O)(=O)O)cc1)C(=O)NC(Cc1ccc(S(=O)(=O)O)cc1)C(=O)NC(Cc1ccc(S(=O)(=O)O)cc1)C(=O)O (stereo not given)	inactive: > 100 µM
C=C1C2C[C@@H]3O[C@H]4C[C@H]5O[C@@]6(C[C@@H]7O[C@]8(C[C@H](C)[C@@H]9O[C@@H]%10CC(C=O)O[C@@H]%10C[C@@H]9O8)C[C@H](C)[C@@H]7O6)C[C@H]5O[C@H]4[C@H](C)[C@H]3OC(=O)C[C@H]3CC[C@@H]4OC5[C@H]6O[C@]7(CC[C@H]8CC(=C)[C@H](CC[C@@H](C[C@H]1C)O2)O8)CC6O[C@@H]5[C@@H](O7)[C@H]4O3 (stereo not given in full)	active: < 0.0001 µM
CC1CC(=O)C2CC(CO)=CCCC2C1(C)CC/C(=C/CO)CO (stereo not given)	inactive: > 100 µM
CC1CCP(=O)(c2ccccc2)CC1 (stereo not given)	inactive: > 100 µM
CSc1nnc(C(C#N)C#N)nn1	inactive: > 100 µM
Nc1ccc(S(=O)(=O)Nc2nnc(S(N)(=O)=O)s2)cc1	inactive: > 100 µM
CCCCn1c(O)nc2c(N)ncnc21	inactive: > 100 µM
Nc1n[n+]([O-])c2cc([N+](=O)[O-])ccc2[n+]1[O-]	inactive: 22.9 µM
CCOC(=O)N1CCC(N[C@@H]2c3cc4c(cc3[C@@H](c3cc(OC)c(O)c(OC)c3)[C@H]3C(=O)OC[C@@H]32)OCO4)CC1	inactive: 8.04 µM
N#CC(=S)Nc1ccc(Cl)c(Cl)c1	inactive: 35.9 µM
CCC(Cc1cnc2nc(N)nc(N)c2n1)c1ccc(C(=O)NC(CCC(=O)O)C(=O)O)cc1 (stereo not given)	active: 0.014 µM

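Following 48 hours of exposure in 96-well plates, responses at five concentrations were used to interpolate endpoints linearly. The concentration for 50% growth inhibition is given as GI50.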 Active and inactive are the calls of the source. No stated cut-off is given here; in the data, active = GI50 up to about 1.1 µM and inactive = higher.
